Data as given in article PMC4336329 (PLoS ONE, 2015).
Among all 310,000 compounds or so, about 14,000 (4.5%) showed an effect of 50% or more. The effect is printed as a negative number. The list shows a part of the results.

The molecules below were run against human ether-à-go-go-related gene (hERG) potassium channel (human, UniProt Q12809) (assay: primary screen, population patch clamp on CHO cells stably expressing hERG).
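Note: peak tail current of the secondary pulse compared with the same well before compound.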

human ether-à-go-go-related gene (hERG) potassium channel, sequence (Q12809 whole entry, looked up): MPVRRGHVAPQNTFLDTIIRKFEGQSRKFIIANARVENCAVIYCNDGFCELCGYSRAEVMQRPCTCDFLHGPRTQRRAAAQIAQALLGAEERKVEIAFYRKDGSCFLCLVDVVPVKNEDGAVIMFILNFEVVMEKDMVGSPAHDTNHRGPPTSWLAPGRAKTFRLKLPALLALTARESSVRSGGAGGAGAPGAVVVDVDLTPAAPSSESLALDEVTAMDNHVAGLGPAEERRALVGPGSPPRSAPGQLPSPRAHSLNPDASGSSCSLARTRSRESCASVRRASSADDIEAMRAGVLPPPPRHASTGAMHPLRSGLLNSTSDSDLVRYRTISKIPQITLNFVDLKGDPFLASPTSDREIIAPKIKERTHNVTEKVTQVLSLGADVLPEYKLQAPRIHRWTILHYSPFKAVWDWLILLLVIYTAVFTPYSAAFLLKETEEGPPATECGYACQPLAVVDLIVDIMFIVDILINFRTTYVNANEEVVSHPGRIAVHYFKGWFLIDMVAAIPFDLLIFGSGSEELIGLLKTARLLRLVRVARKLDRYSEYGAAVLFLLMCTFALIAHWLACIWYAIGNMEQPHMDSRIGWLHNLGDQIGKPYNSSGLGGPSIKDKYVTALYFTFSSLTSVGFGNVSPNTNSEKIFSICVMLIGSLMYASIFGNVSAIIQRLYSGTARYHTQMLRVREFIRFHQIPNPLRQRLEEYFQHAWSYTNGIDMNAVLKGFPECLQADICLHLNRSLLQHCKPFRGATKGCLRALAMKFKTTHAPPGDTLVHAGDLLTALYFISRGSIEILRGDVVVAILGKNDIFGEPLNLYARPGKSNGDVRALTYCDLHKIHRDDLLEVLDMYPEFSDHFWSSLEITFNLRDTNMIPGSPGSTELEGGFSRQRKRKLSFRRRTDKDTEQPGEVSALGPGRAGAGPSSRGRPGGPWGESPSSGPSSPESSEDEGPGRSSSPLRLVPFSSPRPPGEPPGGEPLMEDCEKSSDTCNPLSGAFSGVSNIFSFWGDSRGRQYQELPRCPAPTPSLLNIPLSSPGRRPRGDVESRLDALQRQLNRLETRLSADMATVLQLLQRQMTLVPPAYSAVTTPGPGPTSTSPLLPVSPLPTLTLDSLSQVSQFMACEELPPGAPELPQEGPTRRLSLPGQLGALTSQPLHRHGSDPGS

SMILES	hERG current change (%, negative = inhibition) at 10uM
COC(=O)c1ccc(NC(=S)N2CCN(Cc3ccccc3)CC2)cc1	-4.66%
CCc1nn2c(N)c(/C=C3\C=Nc4ccccc43)c(=O)nc2s1	10.3%
COc1cccc(C(=O)NCc2cccnc2)c1	1.54%
CCC1=NN2C(=N)/C(=C/c3cc(C)n(Cc4ccccc4)c3C)C(=O)N=C2S1	8.33%
O=C(CN(c1ccc(Cl)cc1)S(=O)(=O)c1ccccc1)N1CCN(c2ccccc2)CC1	-17.4%
Cc1cc(C)c(S(=O)(=O)N2CCN(S(=O)(=O)N3CCOCC3)CC2)c(C)c1	-2.92%
CCN(C(=S)NC(=O)C1CC1)c1ccccc1	11.3%
CC(C)CCN1C(=O)c2ccc(C(=O)Nc3ccc(Br)cc3C(=O)O)cc2C1=O	26.4%
Fc1ccc2[nH]c3c(N4CCN(c5ccccc5)CC4)ncnc3c2c1	5.28%
CCCNCc1nnc(-c2ccccc2Cl)o1	10.3%
O=C(CCCSc1nc2ccccc2[nH]1)NC1CCCCC1	8.95%
COCc1nc(-c2ccc(-c3ccc(OC)cc3)nc2OC)no1	10.6%
C=CCC(=O)N(CC)CC1CCCN(CCc2cccc(F)c2)C1 (stereo not shown)	-54.2%
Cc1ccc(-n2c(=S)[nH]c3sc4c(c3c2=O)CCc2ccccc2-4)cc1	26.2%
COC(=O)C1=C(C)N=C2SCCC(=O)N2C1c1ccc(C(=O)OC)cc1 (stereo not shown)	-32.2%
CCOC(=O)c1ccccc1Nc1cn(C(C)=O)c2ccccc12	17.2%
Cc1cc(C(=O)NCC2CCCO2)n(-c2ccccc2)n1 (stereo not shown)	-3.55%
COc1ccc(N(CC(=O)NCc2ccccc2Cl)S(=O)(=O)c2c(C)noc2C)cc1	-15.2%
O=C1CC(c2ccccc2)n2ncnc2N1 (stereo not shown)	-3.5%
Cc1ccc(N2C(=O)N(CC(=O)NC(c3ccccc3)c3ccccc3)C(=O)C2C)cc1 (stereo not shown)	-32.6%
CCN(CC)CCCNC(=O)C1c2cc(OC)c(OC)cc2C(=O)N(C)C1c1cccnc1 (stereo not shown)	23.4%
COC(=O)c1ccc2c(c1)C(=O)N(C1CCCCC1)C2=O	9.33%

SMILES	hERG current change (%, negative = inhibition) at 10uM
Cc1ccc(-n2c(C)c3c(C)nnc(C)c3c2C)cc1N	-15.1%
O=C(CNc1ccc2ccccc2c1)N/N=C/C=C/c1cccc([N+](=O)[O-])c1	-0.672%
O=C(N/N=C/c1cccc([N+](=O)[O-])c1)c1cnccn1	-2.47%
COc1cc2c(cc1N/C=C(\C#N)c1nc(-c3ccccc3)cs1)oc1ccccc12	3.17%
Cc1nnc(N(C)C(=O)c2cnccn2)s1	5.37%
CC1CCCCN1C(=O)CSc1nnc(-c2cccs2)o1 (stereo not shown)	-0.927%
Cc1ccc(CNS(=O)(=O)c2ccc3c(c2)NC(=O)CO3)cc1	10.7%
O=C(O)CCC(=O)N1N=C(c2cccs2)CC1c1ccc(Br)cc1 (stereo not shown)	-5.45%
N#CC(CCN1CCOCC1)(c1ccccc1)c1ccccc1	-20.8%
CCOc1ccc(N(CC(=O)NCc2cccnc2)S(=O)(=O)c2ccc(F)cc2)cc1	-13.6%
Cc1cc(-c2ccc(Cl)s2)n[nH]1	8.34%
C/C(=N\OCC(=O)Nc1ccccc1Br)c1cccs1	10.5%
O=C(CN1C(=O)NC2(CCCCC2)C1=O)Nc1cccc(S(=O)(=O)N2CCCC2)c1	-16.4%
Cc1nc(SCC(=O)Nc2ccc(CN3CCCC3)cc2)c2c(C)c(C)sc2n1	-35.3%
Cc1nc(N/N=C/c2ccccn2)sc1C	13.6%
COCCCN=C(c1ccco1)n1c(=S)nc(-c2ccco2)n(CCCOC)c1=S	-38.5%
COc1ccc(Cc2nnc(SCC(=O)N3CCCC3)o2)cc1	2.54%
CC12CCC(C(=O)N3CCCc4ccccc43)(OC1=O)C2(C)C (stereo not shown)	29.8%
CCN(CC)S(=O)(=O)c1cc([N+](=O)[O-])ccc1NNC(=O)Nc1ccccc1OC	1.97%
Cc1ccc(S(=O)(=O)N2CCCC2C(=O)Nc2cc(C)on2)cc1 (stereo not shown)	-1.05%
COc1cccc(C(=O)COc2ccccc2N2C(=O)C3C4C=CC(C4)C3C2=O)c1 (stereo not shown)	-10.2%
Cc1nc2c(Cl)cc(Cl)cc2[nH]1	-0.654%

SMILES	hERG current change (%, negative = inhibition) at 10uM
Cc1ccc(C(=O)Nc2nc3ccc(S(C)(=O)=O)cc3s2)s1	9.26%
COC(=O)N1CC=CC1(C)C(=O)NCc1cc(F)cc(C(F)(F)F)c1 (stereo not shown)	10.8%
Cc1ccccc1CNc1nnnn1C	12.4%
O=C1CN=C(c2ccccc2)c2c(sc3c2CCCC3)N1	8.1%
O=C(/C=C/c1cccc(Cl)c1)NCc1cccs1	-26.6%
Cc1cccc2cc(CN(CC3CCCO3)C(c3nnnn3Cc3ccco3)C(C)C)c(=O)[nH]c12 (stereo not shown)	-3.56%
CN1CCN(NC(=O)CC(C)(C)C)CC1	22.9%
CN(C)C/C=C(\c1ccc(Br)cc1)c1cccnc1.Cl.O	-63.7%
OC(COc1cccc2ccccc12)CN1CCN(c2ccccc2)CC1 (stereo not shown)	-33.2%
CC(C)c1ccc(/C=C2\C(=N)N3N=C(CC(=O)N4CCCCC4)SC3=NC2=O)cc1	14.2%
CC1(OC(=O)C2CCCC2)C(=O)C=C2C=C(C3CC3)OC=C2C1=O (stereo not shown)	2.82%
O=C(O)c1c(-n2cccc2)sc2c1CCCC2	24.4%
COC(=O)C1=C(O)CSC1=Nc1ccccc1	-14.3%
O=C(c1ccccc1)c1nn(-c2ccc(Cl)cc2)cc1C(=O)c1cc2ccccc2oc1=O	6.29%
O=C(CCNC(=O)C1CCN(S(=O)(=O)c2ccccc2)CC1)NCc1ccccn1	24.1%
O=c1c(-c2cnn(-c3ccccc3)c2)coc2cc(O)ccc12	2.55%
CCOC(=O)C1CCCN(C(=O)/C=C/c2cccc([N+](=O)[O-])c2)C1 (stereo not shown)	-41.8%
Cc1noc(C)c1COc1cccc(C(=O)OC(C)C(=O)Nc2ccc3c(c2)OCO3)c1 (stereo not shown)	-61.2%
CCOc1ccc(S(=O)(=O)Nc2ccc(Cl)cn2)c(C)c1C	11.3%
Cc1cc(C)c2nc(-c3ccccn3)cc(C(=O)Nc3ccc(S(=O)(=O)Nc4onc(C)c4C)cc3)c2c1	-2.33%
CCOc1cc(C(=O)N/N=C\c2cn(CC)nc2C)cc(OCC)c1OCC	10.5%
COc1ccc(/C=N/Nc2nncc3ccccc23)c(OC)c1	10.7%

SMILES	hERG current change (%, negative = inhibition) at 10uM
CCOC(=O)C1(Cc2ccccc2C(F)(F)F)CCN(C(=O)c2cc(C)n(C)n2)CC1	-22.6%
O=C(O)CC(NC(=O)CCC1CCCCC1)c1cc([N+](=O)[O-])ccc1Cl (stereo not shown)	16.5%
Cc1ccc(S(=O)(=O)N2CCN(C(=O)CCC(=O)NC3CCCc4ccccc43)CC2)cc1 (stereo not shown)	-17.3%
CCOc1cc2c(cc1OCC)-n1cccc1C(c1cccc(F)c1)NC2.Cl (stereo not shown)	-14.8%
Cc1ccc(C)c(S(=O)(=O)N2C(=S)NC(=O)C2C(C)C)c1 (stereo not shown)	8.6%
O=C(Nc1ccc2c(c1)OCO2)C1CCN(S(=O)(=O)c2cccc3cccnc23)CC1	15.5%
O=C(CCN1CCN(C/C=C/c2ccccc2)CC1)Nc1ccccc1F.O=C(O)C(=O)O	-75.1%
COc1ccccc1N(CC(=O)Nc1ccc2c(c1)OCCO2)S(=O)(=O)c1ccc(C)cc1	5.68%
CN(c1ccccc1)C(c1ccc(F)cc1)c1nnnn1CC1CCCO1.Cl (stereo not shown)	-14.1%
COCCCNC(=O)C1CCC(CNS(=O)(=O)c2ccc3c(c2)CC(C)N3C(=O)C2CC2)CC1 (stereo not shown)	-5.73%
CC1=C(C(N)=O)C(c2cccs2)n2nc(-c3cccc(C)c3)nc2N1 (stereo not shown)	-16.7%
CN1C(C(=O)Nc2ccc(F)cc2F)=CC(c2ccco2)=NS1(=O)=O	-4.52%
CCCCn1c(N)c(N2CCOCC2)c(=O)n(CC(=O)NC(C)c2ccccc2)c1=O (stereo not shown)	16.3%
COc1ccc(-n2c(-c3ccc(C)cc3)nc3ccccc3c2=O)cc1	-19.2%
Cc1ccc(NC(=O)Nc2ccccc2C#N)c(Cl)c1	16.2%
Cn1c(=O)c2c(nc(NCc3cccnc3)n2Cc2ccc(Cl)cc2)n(C)c1=O	-36.5%
Cc1ccc(CN2CCN(Cc3cnc(N4CCOCC4)s3)CC2CCO)cc1 (stereo not shown)	-46.7%
S=C(NC1CCCCC1)N(CCc1ccccc1)CCc1ccccc1	-3.51%
O=C(CCN1CCCCC1)NCC1OCCc2ccccc21 (stereo not shown)	-15.5%
Fc1cccc(NC(=S)N2CCn3cccc3C2c2cccnc2)c1 (stereo not shown)	10%
CCOC(=O)C(NC(=O)c1ccccc1)(Nc1cc(C)on1)C(F)(F)F (stereo not shown)	2.6%
C(=N\Nc1nc(N2CCOCC2)nc(N2CCOCC2)n1)/c1ccncc1	6.37%
